The results in this text go back to ChEMBL document CHEMBL4888484, “Replenishing the malaria drug discovery pipeline: Screening and hit evaluation of the MMV Hit Generation Library 1 (HGL1) against asexual blood stage Plasmodium falciparum ,using a nano luciferase reporter read-out” (2022).

SMILES strings stand for the structures. Among all 150,000 compounds or so, about 540 (0.36%) showed an effect of 50% or more. This is one part of the list.

This assay relates to Plasmodium falciparum. Put plainly: Primary screen in NF54 nanoGlo assay, in single point, at 2uM, 72h; a lower Z score goes with more inhibition. Format: functional, Erythrocyte. The note with it: timepoint 72 hour.
Take `CNc1nc(N2CCCn3nc(CN(C)Cc4ccon4)cc3C2)ncc1F`: the % Inhibition (as a rule, the relative decrease from the control value, in per cent) is -2% and the Z score turned out to be 0.26.
In the same order, the values of `COc1ccc2nc(C)c(C(=O)N3CC[C@H]3C(F)(F)F)n2n1` are -15% and 1.88.
Taken in the same sequence, the figures for `C[C@H](Nc1nc(N2CCCCC2)nc2ccccc12)c1ccccc1` were 40% and -5.78.
In the same order, the values of `OC[C@@H]1O[C@H](CN(Cc2ccc(F)cc2)Cc2ccc(F)cc2)[C@H](N2CCCC2)[C@@H]1O` are 17% and -2.59.
`O=C(COCC(F)(F)F)N1C[C@H]2CCCC[C@H]21`: the “% Inhibition” value is 0% and the Z score came out at 0.04.
For `Cc1ccc(-c2c(C)noc2C)cc1S(=O)(=O)N1CCCc2ccccc21`, the “% Inhibition” value is on record as -3% and the Z score turned out to be 0.41.
Taken in the same sequence, the figures for `COCCn1nc([C@H]2CCCN(C(=O)C3(c4ccccc4)CCOCC3)C2)n(C2CC2)c1=O` were 5% and -0.55.
In the same order, the values of `C#CC[C@H](C)NCc1csc(C(C)(C)C)n1` are -11% and 1.66.
Taken in the same sequence, the figures for `NC(=O)CN(CCc1nc2ccccc2c(=O)[nH]1)C1CCCC1` were -7% and 1.27.
With `CC(C)c1ccc(C#N)c(NC[C@@H](CO)C(C)C)n1`, the “% Inhibition” value is recorded as -3% and the Z score is on record as 0.37.
For `CCCNC(=O)NC(=O)COc1cc(Cl)ccc1C(N)=O`, the “% Inhibition” value is -21% and the Z score was determined as 1.9.
As for `COC(=O)NCC(=O)NCc1cc2c(nc1OC)CN(C1CCCC1)C2=O`, the “% Inhibition” value is reported as -11% and the Z score came out at 1.09.
Taken in the same sequence, the figures for `Cc1nc2ccccn2c1-c1nnc(N2CCC[C@H]2C(C)C)n1C` were -6% and 1.16.
Take `CC(C)(c1nc(-c2c[nH]c3ccccc23)n[nH]1)N1CCOCC1`: the “% Inhibition” value is -7% and the Z score is listed as 0.66.
In the same order, the values of `Cc1cc(=O)c(C(=O)Nc2ccccc2Cn2ccnc2C)cn1C` are -12% and 1.33.
In the same order, the values of `CN1CCN(Cc2cc3ccc(F)cc3nc2-c2cccc(Cl)c2)CC1` are -9% and 1.
Taken in the same sequence, the figures for `CCc1nccn1CC(=O)Nc1cc(C)nn1CCC(C)C` were -5% and 0.67.
Consider `Cc1ccc2nc(-c3ccccc3F)c(NC(=O)Nc3ccc(F)cc3F)n2c1`, for which the “% Inhibition” value is listed as 21% and the Z score is given as -3.43.
Taken in the same sequence, the figures for `CC(=O)NCCNC(=O)Nc1cc(Cl)c(Cl)cc1F` were 1% and -0.14.
In the same order, the values of `CC(C)(C)N(CC(=O)N(Cc1ccccc1)Cc1cccs1)S(=O)(=O)c1ccccc1` are -4% and 0.78.
Taken in the same sequence, the figures for `Cn1cncc1C(=O)N1CC(Cc2cccc(Br)c2)C1` were 10% and -1.33.
In the case of `Cn1c(CN2CC[C@H](NC(=O)c3ccccn3)[C@@H](O)C2)nc2ccccc21`, the “% Inhibition” value is -13% and the Z score is reported as 1.2.
In the same order, the values of `O=C1c2ccc(Br)cc2C(=O)N1Cc1nnc(C2CC2)o1` are -17% and 1.83.
Taken in the same sequence, the figures for `O=C(Oc1ccc(OC(=O)N2CCOCC2)cc1)c1ccccc1` were -6% and 1.11.
As to `Cn1cc(CCc2nc(C3CCCC3)nn2CC(F)(F)F)cn1`, the “% Inhibition” value amounted to 2% and the Z score is -0.26.
Turning to `C=C1C(C(=O)Nc2ccc3c(c2)OCCO3)[C@H]1C(=O)Nc1ccc2c(c1)OCCO2` (stereo not given in full), the “% Inhibition” value is recorded as 29% and the Z score is -2.64.
Consider `N#CCN1CCOc2ccccc2C1=O`, for which the “% Inhibition” value was -9% and the Z score worked out at 0.99.
Turning to `CC1CC(N2CCCC(n3cnc4ccccc43)C2)CN1C` (stereo not given), the “% Inhibition” value was -5% and the Z score came out at 0.43.
In the same order, the values of `Cn1ccnc1[C@H]1OCC[C@@H]1NC(=O)NC(C1CCCCC1)C(F)(F)F` (stereo not given in full) are -2% and 0.29.
Taken in the same sequence, the figures for `Fc1ccc(CN(Cc2nc3cc(F)ccc3o2)C2CCOCC2)cc1` were -6% and 0.58.
On to `COc1ncc(-c2cccc(-c3cc[nH]n3)c2)c(OC)n1`, for which the “% Inhibition” value is -6% and the Z score is on record as 0.85.
As to `Cc1cc(S(=O)(=O)N[C@@H](C)c2ncnn2C)c(C)s1`, the “% Inhibition” value is on record as -21% and the Z score is recorded as 2.78.
In the same order, the values of `CC(C)NC(=O)Nc1ccc(N(C)C)c(CN(Cc2ccco2)C(=O)C(C)(C)C)c1` are -15% and 1.61.
In the same order, the values of `CC[C@@H](c1cccc(OC)c1)N(C)Cc1n[nH]cc1C` are -7% and 0.92.
As for `Cc1cccc(C(=O)NCCNc2cc(-n3cnc(C)c3C)ncn2)c1`, the “% Inhibition” value is on record as -20% and the Z score was determined as 1.77.
In the same order, the values of `c1ccc(CNCc2ccc(O[C@H]3CCOC3)cc2)nc1` are -8% and 1.19.
`Cc1noc(C)c1CC(=O)N1CC[C@@H](c2ccccc2Cl)S(=O)(=O)CC1`: the “% Inhibition” value was 3% and the Z score is given as -0.46.
Taken in the same sequence, the figures for `CCOc1ccc(NC(=O)CCC(=O)N2CC(=O)NC(=O)C2)cc1` were -15% and 1.92.
Regarding `CC(C)(C)Oc1ccncc1NC(=O)CS(=O)(=O)C1CCCC1`, the “% Inhibition” value is -17% and the Z score is given as 3.01.
As for `O=C(c1ccccc1)[C@@H]1CCCN1S(=O)(=O)N1CCCCC1`, the “% Inhibition” value is on record as 0% and the Z score is -0.07.
In the same order, the values of `C/C=C(\C)CN1CC[C@H](CNC(=O)CC2CC2)C1` are 0% and 0.02.
In the same order, the values of `CC1CN(c2ccnc(C(=O)Nc3ccnn3C(C)C)c2)CC(C)O1` (stereo not given) are -1% and 0.09.
Taken in the same sequence, the figures for `COCc1ncc(C)n1C[C@H]1CCCN(C(=O)Nc2ccc(C)c(C)c2)C1` were -8% and 0.98.
Consider `COc1ccc(-c2n[nH]c(=O)c3c2CCCC3)cc1S(=O)(=O)N1CCCCCC1`, for which the “% Inhibition” value is on record as -12% and the Z score was 1.36.
Taken in the same sequence, the figures for `CCCC(C#N)NC(=O)C1CNC(=O)N1` (stereo not given) were -7% and 0.9.
As to `C1CCC(n2nnnc2C2CCOCC2)C1`, the “% Inhibition” value turned out to be 7% and the Z score was -0.95.
Taken in the same sequence, the figures for `Cc1cccc(CNC(=O)N(CCO)CCN(C)C)c1` were -23% and 2.3.
In the same order, the values of `O[C@@H](CNCc1ccsc1C(F)(F)F)c1cc(Cl)c2c(c1)OCCO2` are 22% and -4.11.
Taken in the same sequence, the figures for `Cc1nnc2ccc(-c3noc(-c4ccccc4)n3)cn12` were -7% and 1.33.
On to `COc1ccc(CN[C@H]2CCOC(C)(C)C2)cc1OCc1cccnc1`, for which the “% Inhibition” value is on record as -12% and the Z score came out at 1.7.
In the same order, the values of `Cc1ccc(S(=O)(=O)C2(C(=O)NCc3ccccn3)CCCC2)cc1C` are 7% and -1.3.
In the same order, the values of `O=C(c1ccc2c(c1)OCO2)N1CC[C@@]2(CCCN(CC3CCC3)C2=O)C1` are -12% and 2.15.
Taken in the same sequence, the figures for `CCCc1nnc(C(=O)N(C)Cc2cnccn2)o1` were 3% and -0.5.
With `O=C(NCc1ccc2c(c1)OCO2)c1ccc(-c2cnc(Oc3ccc(F)cc3)nc2)cc1`, the “% Inhibition” value is recorded as 11% and the Z score is -1.7.
As for `CN(C)CCCNc1nc(N2CCCC2)c2c(c1C#N)CCN(C)C2`, the “% Inhibition” value is reported as 39% and the Z score is reported as -1.31.
Taken in the same sequence, the figures for `CC1COC(c2ccccc2)C(C)N1CC(=O)NCc1ccccn1` (stereo not given) were -14% and 2.04.
Take `CC[C@@H](C(=O)N1CCC(N2CCOC2=O)CC1)n1cccn1`: the “% Inhibition” value is reported as -5% and the Z score is reported as 0.86.
Taken in the same sequence, the figures for `Cc1cc(-c2nc(Cn3cncn3)nn2CC2CCCCC2)nc(C)n1` were 7% and -1.2.
Taken in the same sequence, the figures for `O=C(c1cccn1C1CCCC1)N1CCOCC(F)(F)C1` were 0% and -0.05.
Taken in the same sequence, the figures for `CN(C)[C@H]1[C@H](Nc2ccnc3ccccc23)[C@@H]2CCO[C@@H]21` were 12% and -1.1.
Take `COCCN(CCOC)c1ncnc2c1CCC2`: the “% Inhibition” value is -11% and the Z score came to 1.16.
In the same order, the values of `CN1CC[C@H]2CC[C@@H](C1)N2c1ccnc(C(=O)NCc2cccnc2)c1` are -10% and 2.17.
Taken in the same sequence, the figures for `CCN(CC)C(=O)c1cnc2nc(C)ccc2c1Nc1cccc(OC(F)(F)F)c1` were -1% and 0.15.
Taken in the same sequence, the figures for `O=C(Nc1cc(NC(=O)c2cccc3ccccc23)c(OCC(F)(F)F)cc1OCC(F)(F)F)c1cccc2ccccc12` were -9% and 1.45.
Turning to `C#CCCC1(CCC(=O)N2CC(C)(C)[C@H]2c2cccnc2)N=N1`, the “% Inhibition” value is on record as -16% and the Z score is 1.98.
Taken in the same sequence, the figures for `CCOCC(=O)N1CCC(C(=O)N2CC(c3nccs3)C2)CC1` were -13% and 1.97.
`CNC[C@H](C)CNC(=O)Cc1ccc(F)c(Br)c1`: the “% Inhibition” value is -9% and the Z score is listed as 1.03.
As to `CN1CCN(c2nc3c(c(Oc4cccc(F)c4)n2)CN(S(=O)(=O)c2cccc(Cl)c2)CC3)CC1`, the “% Inhibition” value is -5% and the Z score is 0.66.
For the molecule `C#CCNC(=O)CNC1(C(=O)OCC)CCCCC1`, the “% Inhibition” value is listed as -1% and the Z score worked out at 0.12.
With `O=C(NC1CC1)N(CC1CC1)C1CCCCC1`, the “% Inhibition” value was 12% and the Z score is listed as -1.53.
Taken in the same sequence, the figures for `O=C(NCCCO)NC1CCCCC1OC1CCCC1` (stereo not given) were 2% and -0.21.
Taken in the same sequence, the figures for `CC[C@H](NC1CCN(Cc2ccccc2)CC1)c1ncccc1C` were 4% and -0.53.
Turning to `Cc1nn(C(C)C)c(C)c1C(=O)NCc1n[nH]c(N)n1`, the “% Inhibition” value was -10% and the Z score is on record as 1.89.
As to `Cc1nc(C)n(C[C@H]2CCCCN2Cc2noc(C3CC3)n2)n1`, the “% Inhibition” value is on record as -20% and the Z score was 3.82.
Taken in the same sequence, the figures for `O=C(O[C@@H](C(=O)Nc1ccc(Cl)cc1C(F)(F)F)c1ccccc1)c1ccc(S(=O)(=O)N2CCCCC2)cc1` were -3% and 0.49.
Take `O=C(C[C@H]1CCCCN(Cc2ccccc2)C1=O)N1CCCC1`: the “% Inhibition” value is recorded as -11% and the Z score amounted to 2.19.
In the same order, the values of `CCCc1nnsc1C(=O)N1CCC[C@H](CNC(=O)c2cccs2)C1` are -11% and 2.11.
Taken in the same sequence, the figures for `O=C(c1ccc(F)cc1)N1CC2CCC2(Nc2ncc(Cl)cn2)C1` (stereo not given) were -8% and 1.08.
In the same order, the values of `Cc1nnc([C@H](C)OC(=O)C2=CCCCCC2)o1` are -13% and 1.72.
In the case of `Cc1c(C(=O)N2CCC[C@H]3CN(C)C[C@H]32)nnn1C(C)C`, the “% Inhibition” value came out at 2% and the Z score is on record as -0.32.
Take `CN1CC2(CCN(S(=O)(=O)c3ccccc3)CC2)C[C@H]1C(=O)N1CCCC1`: the “% Inhibition” value is 1% and the Z score was -0.23.
Taken in the same sequence, the figures for `O=C(c1ccoc1)N1CCC(F)(F)[C@@H](COCc2cccnc2)C1` were 0% and 0.09.
Take `CC(C)CCNC(=O)[C@H]1CC(=O)OC1(C)C`: the “% Inhibition” value is -18% and the Z score is listed as 2.37.
In the same order, the values of `C[C@@H]1CN(C[C@@H]2CN(C(=O)CCc3cccnc3)C[C@@H]2CO)C[C@H](C)O1` are -1% and 0.13.
Take `O=C(NC[C@H]1COCCO1)c1ccnc(C2CC2)c1`: the “% Inhibition” value was -17% and the Z score is 1.46.
